The text below walks through data of PubChem BioAssay AID1346428 (National Center for Advancing Translational Sciences (NCATS), 2018).

SMILES strings stand for the structures. About 1,200 (2.5%) of roughly 48,000 compounds were called active. Inconclusive results (about 2%) are left out.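 How the source made its calls: active means activation of at least 60% and not above a set upper limit (about 1 call in 100 departs from these limits); inconclusive means activation of 40% to 60%, or above that upper limit; inactive means activation under 40%.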 Some of the results follow.

For the test, the target named is Probable G-protein coupled receptor 32 (Homo sapiens) (UniProt O75388). Briefly: qHTS for Agonists of Human Resolvin D1 Receptor DRV1. Further: 0% is about no effect. The following applies: CHO-K1 GPR32 beta-arrestin PathHunter luminescence, 90 min; at 76.9 µM; hits give high values; zero percent set by DMSO-only wells. The procedure, abridged: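 PathHunter beta-arrestin recruitment in CHO-K1 cells stably expressing ProLink-tagged GPR32. Cells were exposed to compound for 90 min at 37 C, then chemiluminescence was read after 1 h detection at ambient temperature; DMSO served as basal control.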
Sequence of UniProt O75388 (O75388 whole entry, looked up): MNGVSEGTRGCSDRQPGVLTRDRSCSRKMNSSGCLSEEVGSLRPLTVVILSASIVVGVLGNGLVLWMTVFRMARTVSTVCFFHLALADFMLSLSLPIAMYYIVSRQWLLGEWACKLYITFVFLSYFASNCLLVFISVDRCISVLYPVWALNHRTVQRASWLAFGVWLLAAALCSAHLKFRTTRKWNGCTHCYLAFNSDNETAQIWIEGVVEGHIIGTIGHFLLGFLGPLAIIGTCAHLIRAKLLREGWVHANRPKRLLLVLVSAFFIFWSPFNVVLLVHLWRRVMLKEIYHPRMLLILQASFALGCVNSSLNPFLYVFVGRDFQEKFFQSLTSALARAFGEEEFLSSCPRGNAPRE
For `O=C(c1ccccc1Cl)n1nc(-c2cccnc2)nc1NCc1ccc(F)cc1`, the activation was inactive: -36.2%.

Consider `Cc1cc(C)c(NC(=O)CCc2c(C)nc3c(c(C)nn3C(C)(C)C)c2C)c(C)c1`, for which the activation was inactive: 6.97%.

Consider `CCOC(=O)c1ccc(NC(=O)CCc2c(C)nc3nc[nH]n3c2=O)cc1`, for which the activation is inactive: 23.3%.

For `COc1ccc(N2CCN(C3=NS(=O)(=O)C(c4cccc(Br)c4)=C3C)CC2)cc1`, the activation is inactive: -24%.

With `COC(=O)c1cc2sc(C)cc2n1Cc1ccc(Br)cc1F`, the activation was inactive: -32.6%.

`COc1ccc(C2=NN(CC(=O)NCCCN(C)c3ccccc3)C(=O)CC2)cc1`: the activation is inactive: -31%.

With `COc1ccccc1N1CCN(CC(O)COc2cc(C)cc(C)c2)CC1` (stereo not drawn), the activation is inactive: 34%.

Consider `CCOc1ccc(N2C(=O)N(Cc3ccc(C)cc3C)c3ccccc3S2(=O)=O)cc1`, for which the activation was inactive: -7.84%.

With `O=C(O)CCC/C=C\C[C@@H]1[C@@H](/C=C/[C@H](O)C2Cc3ccccc3C2)[C@@H](F)C[C@@H]1O`, the activation was inactive: -2.3%.

With `O=c1c2ccccc2n(Cc2cccc(F)c2)c(=O)n1Cc1ccccc1Cl`, the activation was inactive: 7.25%.

Turning to `COc1cccc(CNC(=O)CCCN2C(=O)CSc3c2c(C)nn3-c2ccccc2)c1`, the activation is inactive: 2.74%.

`Cc1ccc(-c2cc(C(=O)NCCc3ccccc3)c3c(-c4ccc(C)cc4)[nH]nc3n2)cc1`: the activation is inactive: -24.6%.

Regarding `CCn1cc(C(=O)N2CCN(c3cc(C)ccc3C)CC2)c(=O)c2cc(S(=O)(=O)N(C)C3CCCCC3)ccc21`, the activation was inactive: 6.54%.

Take `Cc1cccc(Nc2c3c(nc4nncn24)CCC3)c1`: the activation is inactive: -14%.

Regarding `CCCCN1CCc2nc(N3CCN(c4ncccn4)CC3)ncc2C1`, the activation is inactive: -10.9%.

Turning to `Cc1ccc(NC(=O)CSc2nc3c([nH]c4ccccc43)c(=O)n2-c2ccccc2)c(C)c1`, the activation is inactive: -43%.

With `CCN(c1ccccc1)S(=O)(=O)c1ccc(NC(=O)c2cc(=O)c3cc(C)c(C)cc3o2)cc1`, the activation is inactive: -3.46%.

On to `Cc1cccc(NS(=O)(=O)c2ccc3c(c2)CCN3C(=O)CCC(=O)O)c1C`, for which the activation is inactive: 21.6%.

Take `COc1ccc(S(=O)(=O)Nc2cc3c(cc2NCc2ccccc2)n(C)c(=O)n3C)cc1OC`: the activation was inactive: -18.8%.

For the compound `COc1cccc(-n2cc(C(=O)NCc3cccc(Cl)c3)c3ccccc3c2=O)c1`, the activation is inactive: -24.8%.

With `CCOc1ccc(NC(=O)c2ccc(-c3ccccc3)s2)cc1`, the activation is inactive: -4.76%.

In the case of `Cc1nc2c(-c3ccc(F)cc3)c(C)nn2c(C)c1CCC(=O)NCc1ccc(Cl)cc1`, the activation is inactive: 18%.

Consider `COc1ccccc1N1CCN(C(=O)Cn2c(=O)nc(-c3ccccc3)c3cc(Cl)ccc32)CC1`, for which the activation was inactive: -6.85%.

On to `CCOc1ccc(C(=O)Nc2ccc3nc(SCc4ccccc4)sc3c2)cc1`, for which the activation is active: 62.8%.

With `CCSc1ncc(Cl)c(C(=O)Nc2c(C(=O)Nc3ccc(Cl)cc3)oc3ccccc23)n1`, the activation was inactive: -12.2%.

On to `O=C(c1ccc2c(c1)N(Cc1ccccc1)C(=O)c1ccccc1S2(=O)=O)N1CCN(c2ccccn2)CC1`, for which the activation was inactive: -18.2%.

Regarding `CCOc1ccc(OCC)c(NC(=O)CCc2c(C)nc3c(c2C)c(=O)n(C)c(=O)n3C)c1`, the activation is inactive: -1.15%.

In the case of `CCOc1ccccc1CNC(=O)c1cc(-c2ccc(OC)cc2)nc2ccc(C(C)C)cc12`, the activation is inactive: -13%.

As to `COc1cc(C2c3c(oc4ccccc4c3=O)C(=O)N2c2nnc(C(C)C)s2)cc(OC)c1OC` (stereo not drawn), the activation is inactive: -6.39%.

Consider `CCOC(=O)c1cccc(NS(=O)(=O)c2cn(C)c(C)n2)c1`, for which the activation was inactive: 9.14%.

With `COc1ccc(CNC(=O)c2ccc3c(c2)nc2n3CCCCC2)c(OC)c1`, the activation is inactive: -15.3%.

For the compound `COC(=O)c1ccccc1NC(=O)Cn1c(=O)n(-c2ccc(Cl)cc2)c(=O)c2c(C)c(C)sc21`, the activation was inactive: -2.47%.

Turning to `COc1ccc(/C=C/c2noc(-c3ccccc3O)n2)cc1OC`, the activation was inactive: -5.54%.

On to `Cc1ccc(Cn2ccn(Cc3ccccc3C)c(=O)c2=O)cc1`, for which the activation is inactive: -2.44%.

Consider `COc1ccc(C(=O)N2CCc3cc(OC)c(OC)cc3C2COc2ccc3c(C)cc(=O)oc3c2)c(OC)c1` (stereo not drawn), for which the activation is inactive: 4.01%.

Take `COc1cc(NS(=O)(=O)c2ccc3c(c2)CCCN3C(C)=O)cc(OC)c1OC`: the activation is inactive: 1.6%.

On to `Cc1cc(C)cc(-n2nnc(-c3nc(-c4ccccc4F)no3)c2C)c1`, for which the activation was inactive: -4.53%.

Take `Cc1ccc(CN2CCN(CC(=O)NCc3ccccc3Cl)C2=O)cc1`: the activation is inactive: 9.7%.

For the compound `Cc1cc(C)n(-c2nc3ccccc3nc2Nc2cc(C(=O)O)ccc2C)n1`, the activation is inactive: 5.39%.

As to `COc1ccc(S(=O)(=O)N(CC(=O)NCc2ccc(C)cc2)c2ccc(Cl)cc2)cc1`, the activation is inactive: -5.51%.

As for `CCOc1ccccc1NC(=O)CN1C(=O)C2(SCC(=O)N2c2cccc(F)c2)c2ccccc21` (stereo not drawn), the activation is inactive: -18%.

`O=C(Nc1ccc(F)c(Cl)c1)c1cc(S(=O)(=O)N2CCCc3ccccc32)ccc1F`: the activation is inactive: -23.8%.

Regarding `Cc1c(Cl)cccc1NC(=O)CCn1nc(C)c2c(C)n(-c3ccccc3)nc2c1=O`, the activation is inactive: -4.59%.

Turning to `Cc1ccc(NC(=O)C(=O)NCC(c2cccnc2)N2CCc3ccccc32)cc1Cl` (stereo not drawn), the activation was inactive: -12.7%.

`COc1ccc(NC(=O)c2sc3nc(C)c(C(=O)Nc4ccc(Cl)cc4)c(-c4ccc(Br)cc4)c3c2N)cc1`: the activation was inactive: 21%.

`CCOc1ccc(C(=O)N2CCCCC2CCN2CCOCC2)cc1` (stereo not drawn): the activation was inactive: -11.9%.

Turning to `COc1ccc(NC(=O)c2nc3nc(C)cc(C(F)F)n3n2)c(C)c1`, the activation was inactive: 24.1%.

With `COc1ccccc1Nc1nc2ccc(Cl)cc2nc1-n1nc(C)cc1C`, the activation was inactive: -19.9%.

For `COCCNC(=O)C(=O)NCC(c1cccnc1)N1CCN(c2ccccc2F)CC1` (stereo not drawn), the activation is inactive: 0.535%.

For the compound `Cc1ccc2oc3c(c(=O)c2c1)C(c1ccc(F)cc1)N(c1nc(C)c(C)s1)C3=O` (stereo not drawn), the activation was inactive: -9.29%.

For the compound `COc1ccc(C2CC(=O)Nc3c2c(=O)[nH]c2nc4ccccc4n32)cc1OC` (stereo not drawn), the activation is inactive: -7.18%.

As to `Cc1ccc(C)c(NS(=O)(=O)c2cc3c(cc2Cl)NC(=O)CO3)c1`, the activation was inactive: -2.84%.

For the compound `CCOC(=O)c1cccc(NC(=O)C2CCN(S(=O)(=O)c3cn(C)cn3)CC2)c1`, the activation is inactive: -15.9%.
